Measured values taken from patent US20070031912A1 (RIKEN, published 2007).

How the values were obtained:
[1] = target: T1, mKO-FM14-C-PCNA; experiment: split fluorescent protein complementation in co-transfected HeLa cells, orange and green fluorescence images 8 hours after transfection
T1 construct: Fusion expressed inside HeLa cells from mKO-FM14-C-PCNA-pCDNA3; PCNA was amplified from a HeLa cDNA library; PCNA is said, as background, to form a homo-trimer; also called PCNA (proliferating cell nuclear antigen) fused to the C-terminal of mKO-FM14-C
Method: The amplification product was separated by agarose gel electrophoresis, excised out and purified and then cleaved with restriction enzymes NotI and XhoI, purified and used for the construction. mKO-FM14-N-p21-pCDNA3 and mKO-FM14-C-PCNA-pCDNA3 thus prepared were transfected to HeLa cells to obtain the history data of binding of p21 and PCNA. HeLa cells were grown in 3.5 cm dishes to 30% confluence, and after 16 hours, 500 ng each of the plasmid, mKO-FM14-N-p21-pCDNA3 and mKO-FM14-C-PCNA-pCDNA3, was transfected using the gene transfection reagent polyfect (QIAGEN) to co-express mKO-FM14-N-p21 and mKO-FM14-C-PCNA. Gene transfection was carried out according to the protocol of polyfect.
After 8 and 22 hours of the gene transfection, orange and green fluorescence images were obtained. […] Orange fluorescence image was obtained using the excitation filter 25BP520-540HQ, the fluorescence filter 25BA555-600HQ, and the dichroic mirror DM545HQ, and green fluorescence image was obtained using the excitation filter BP460-480, the fluorescence filter BA495-540, and the dichroic mirror DM485. […] Fluorescence image was obtained using a cooling CCD camera ORCA-ER (Hamamatsu Photonics Inc.).

[2] = target: T1, mKO-FM14-C-PCNA; experiment: split fluorescent protein complementation in co-transfected HeLa cells, green fluorescence images 24 hours after transfection
Method: Since the 65th amino acid was included in mKO-FM14-N fragment, mKG-N-p21-pCDNA3 was produced by substituting the 65th cystein (C) of mKO-FM14-N-p21-pCDNA3 with alanine (A). HeLa cells were transfected with mKG-N-p21-pCDNA3 and mKO-FM14-C-PCNA-pCDNA3 to measure the binding between p21 and PCNA. HeLa cells were passaged in 3.5 cm dishes to 30% confluence, and after 16 hours, 500 ng each of the plasmid, mKG-N-p21-pCDNA3 and mKO-FM14-C-PCNA-pCDNA3, was transfected using the gene transfection reagent polyfect (QIAGEN) to co-express mKG-N-p21 and mKO-FM14-C-PCNA. Gene transfection was carried out according to the protocol of polyfect. After 24 hours of the gene transfection, green fluorescence images were obtained. The fluorescence image was obtained using the excitation filter BP460-480, the fluorescence filter BA495-540, and the dichroic mirror DM485. Excitation light was cut by 90% (10% transmission), and the exposure time was 1 second. An inverted microscope IX-71 (Olympus) with 40×Uapo/340 N.A. 1.35 lens (Olympus) was used. For image retrieval and analysis, MetaMolph (Nippon Roper Inc.) was used by binning 2 to obtain an image. Fluorescence image was obtained using a cooling CCD camera ORCA-ER (Hamamatsu Photonics Inc.). […]

Row | Binder | binding result [1] | binding result [2]
1 | mKO-FM14-N-p21 (other, Fusion expressed inside HeLa cells from mKO-FM14-N-p21-pCDNA3. p21 was amplified from a HeLa cDNA library; also called p21 (WAF1); Sdi1) MVSVIKPEMKMRYYMDGSVNGHEFTIEGEGTGRPYEGHQEMTLRVTMAEGGPMPFAFDLVSHVFCYGHRVFTKYPEEIPDYFKQAFPEGLSWERSLEFEDGGSASVSAHISLRGNTFYHKSKFTGVNFPADGPIMQNQSVDWEPSTEKITASDGVLKGDVTMYLKLEGGNSADGGGGSGGGGSGGGGSIHHTGGR[sequence of about 150 residues omitted] | binds | –
2 | mKG-N-p21 (other, Green-only variant (C65A) of the N-terminal fragment fused with p21, expressed inside HeLa cells from mKG-N-p21-pCDNA3; also called mKO-FM14-N-p21 with the 65th cysteine substituted with alanine) MVSVIKPEMKMRYYMDGSVNGHEFTIEGEGTGRPYEGHQEMTLRVTMAEGGPMPFAFDLVSHVFAYGHRVFTKYPEEIPDYFKQAFPEGLSWERSLEFEDGGSASVSAHISLRGNTFYHKSKFTGVNFPADGPIMQNQSVDWEPSTEKITASDGVLKGDVTMYLKLEGGNSADGGGGSGGGGSGGGGSIHHTGGR[sequence of about 150 residues omitted] | – | binds
